Source: publication PMC9106588
Results are given in words; binding and its absence hold for the method and conditions named. In cells and extracts the contact can be indirect. Some binding calls cover weakened binding; strength is not graded here. For some assays here: Sequences can lack the tags named with a protein.

By UniProt entry, the sequences of proteins in these tests, tags left out. Where a name states a change or a piece, a line headed by the entry shows the natural chain unless it says otherwise.
UniProt Q8IWT3: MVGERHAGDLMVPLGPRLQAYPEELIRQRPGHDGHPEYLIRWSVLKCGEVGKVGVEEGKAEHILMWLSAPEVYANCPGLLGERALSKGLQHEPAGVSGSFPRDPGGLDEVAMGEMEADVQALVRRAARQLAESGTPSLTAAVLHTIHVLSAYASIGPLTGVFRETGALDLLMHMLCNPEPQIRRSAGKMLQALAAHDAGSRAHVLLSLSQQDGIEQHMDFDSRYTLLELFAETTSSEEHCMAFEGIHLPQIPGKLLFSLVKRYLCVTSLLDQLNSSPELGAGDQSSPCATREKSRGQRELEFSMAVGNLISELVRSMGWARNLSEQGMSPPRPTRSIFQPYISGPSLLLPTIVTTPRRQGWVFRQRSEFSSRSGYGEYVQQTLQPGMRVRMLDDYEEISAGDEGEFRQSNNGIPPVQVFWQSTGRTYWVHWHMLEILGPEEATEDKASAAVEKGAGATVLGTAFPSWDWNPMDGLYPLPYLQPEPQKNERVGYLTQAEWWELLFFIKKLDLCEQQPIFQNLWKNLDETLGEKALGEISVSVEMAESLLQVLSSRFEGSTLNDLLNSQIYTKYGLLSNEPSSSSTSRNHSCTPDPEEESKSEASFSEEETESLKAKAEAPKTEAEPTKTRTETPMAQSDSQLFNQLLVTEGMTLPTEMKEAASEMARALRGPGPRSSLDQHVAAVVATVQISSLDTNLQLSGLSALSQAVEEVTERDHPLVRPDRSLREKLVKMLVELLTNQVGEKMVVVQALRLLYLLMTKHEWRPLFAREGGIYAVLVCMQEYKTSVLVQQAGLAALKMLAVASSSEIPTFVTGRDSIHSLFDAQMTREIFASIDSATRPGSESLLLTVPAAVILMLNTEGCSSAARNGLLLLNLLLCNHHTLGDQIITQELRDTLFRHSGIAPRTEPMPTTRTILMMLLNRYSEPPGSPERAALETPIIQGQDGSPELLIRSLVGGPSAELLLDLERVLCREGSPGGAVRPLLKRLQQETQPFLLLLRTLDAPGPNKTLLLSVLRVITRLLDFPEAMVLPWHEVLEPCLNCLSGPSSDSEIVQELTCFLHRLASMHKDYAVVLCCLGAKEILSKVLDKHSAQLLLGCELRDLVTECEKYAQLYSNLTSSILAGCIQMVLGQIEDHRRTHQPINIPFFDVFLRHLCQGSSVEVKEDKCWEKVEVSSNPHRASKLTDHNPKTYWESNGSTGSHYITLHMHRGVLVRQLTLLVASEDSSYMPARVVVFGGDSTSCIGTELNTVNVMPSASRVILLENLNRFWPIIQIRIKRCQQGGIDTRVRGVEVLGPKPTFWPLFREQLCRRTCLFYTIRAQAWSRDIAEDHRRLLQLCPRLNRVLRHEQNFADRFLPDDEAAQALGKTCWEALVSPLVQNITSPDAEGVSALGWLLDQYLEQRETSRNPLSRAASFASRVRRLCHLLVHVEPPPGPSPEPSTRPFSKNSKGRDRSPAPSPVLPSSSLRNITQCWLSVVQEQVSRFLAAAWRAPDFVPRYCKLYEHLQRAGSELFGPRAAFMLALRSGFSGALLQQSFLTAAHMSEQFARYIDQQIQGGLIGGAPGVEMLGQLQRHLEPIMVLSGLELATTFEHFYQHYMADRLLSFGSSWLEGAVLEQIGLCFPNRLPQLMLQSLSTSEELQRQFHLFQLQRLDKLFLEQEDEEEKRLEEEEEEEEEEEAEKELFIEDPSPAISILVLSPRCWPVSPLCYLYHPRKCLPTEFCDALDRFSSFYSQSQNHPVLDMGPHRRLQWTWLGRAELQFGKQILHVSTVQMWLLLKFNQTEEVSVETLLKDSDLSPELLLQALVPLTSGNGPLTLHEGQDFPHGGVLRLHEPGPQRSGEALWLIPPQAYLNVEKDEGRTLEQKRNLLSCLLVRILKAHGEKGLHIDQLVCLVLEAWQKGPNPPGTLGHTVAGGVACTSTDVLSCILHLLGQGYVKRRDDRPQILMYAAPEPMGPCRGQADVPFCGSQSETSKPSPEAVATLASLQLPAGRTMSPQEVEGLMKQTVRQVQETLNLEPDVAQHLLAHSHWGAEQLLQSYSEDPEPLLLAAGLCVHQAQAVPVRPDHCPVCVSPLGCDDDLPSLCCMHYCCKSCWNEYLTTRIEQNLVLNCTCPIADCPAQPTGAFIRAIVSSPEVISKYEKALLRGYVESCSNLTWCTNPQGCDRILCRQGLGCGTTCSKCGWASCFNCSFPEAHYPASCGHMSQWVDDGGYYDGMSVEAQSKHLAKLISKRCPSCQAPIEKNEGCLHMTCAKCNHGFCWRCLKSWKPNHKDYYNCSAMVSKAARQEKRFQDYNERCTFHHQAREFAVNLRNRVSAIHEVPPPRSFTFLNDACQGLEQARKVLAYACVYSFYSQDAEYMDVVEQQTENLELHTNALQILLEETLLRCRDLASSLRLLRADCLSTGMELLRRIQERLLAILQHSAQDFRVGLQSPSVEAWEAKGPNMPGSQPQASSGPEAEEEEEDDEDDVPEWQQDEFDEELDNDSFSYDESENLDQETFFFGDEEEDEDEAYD
UniProt P06493: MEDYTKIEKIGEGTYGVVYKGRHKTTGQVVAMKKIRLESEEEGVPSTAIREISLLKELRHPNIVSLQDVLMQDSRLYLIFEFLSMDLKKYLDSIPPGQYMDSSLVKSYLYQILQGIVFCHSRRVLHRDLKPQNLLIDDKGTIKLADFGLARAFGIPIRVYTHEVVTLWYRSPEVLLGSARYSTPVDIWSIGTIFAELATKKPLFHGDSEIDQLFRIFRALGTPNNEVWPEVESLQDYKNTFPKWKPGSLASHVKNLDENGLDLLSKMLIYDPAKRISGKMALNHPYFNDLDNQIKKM
UniProt P20248: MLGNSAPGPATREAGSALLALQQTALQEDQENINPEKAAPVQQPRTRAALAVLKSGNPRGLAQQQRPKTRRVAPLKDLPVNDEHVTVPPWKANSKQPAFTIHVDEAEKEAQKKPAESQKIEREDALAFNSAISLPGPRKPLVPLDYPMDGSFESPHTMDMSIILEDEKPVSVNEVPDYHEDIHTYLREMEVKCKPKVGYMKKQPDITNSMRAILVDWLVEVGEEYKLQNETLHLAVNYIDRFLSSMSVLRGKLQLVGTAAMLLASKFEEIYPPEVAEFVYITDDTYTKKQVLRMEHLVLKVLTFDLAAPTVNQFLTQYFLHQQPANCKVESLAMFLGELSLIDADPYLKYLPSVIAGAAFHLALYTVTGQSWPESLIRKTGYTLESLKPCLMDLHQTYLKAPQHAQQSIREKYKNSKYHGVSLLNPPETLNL

T1: EGFP-tagged wild-type KIND2 (EGFP–KIND2-WT) (mouse) (UniProt Q8CIB5)
T1 sequence: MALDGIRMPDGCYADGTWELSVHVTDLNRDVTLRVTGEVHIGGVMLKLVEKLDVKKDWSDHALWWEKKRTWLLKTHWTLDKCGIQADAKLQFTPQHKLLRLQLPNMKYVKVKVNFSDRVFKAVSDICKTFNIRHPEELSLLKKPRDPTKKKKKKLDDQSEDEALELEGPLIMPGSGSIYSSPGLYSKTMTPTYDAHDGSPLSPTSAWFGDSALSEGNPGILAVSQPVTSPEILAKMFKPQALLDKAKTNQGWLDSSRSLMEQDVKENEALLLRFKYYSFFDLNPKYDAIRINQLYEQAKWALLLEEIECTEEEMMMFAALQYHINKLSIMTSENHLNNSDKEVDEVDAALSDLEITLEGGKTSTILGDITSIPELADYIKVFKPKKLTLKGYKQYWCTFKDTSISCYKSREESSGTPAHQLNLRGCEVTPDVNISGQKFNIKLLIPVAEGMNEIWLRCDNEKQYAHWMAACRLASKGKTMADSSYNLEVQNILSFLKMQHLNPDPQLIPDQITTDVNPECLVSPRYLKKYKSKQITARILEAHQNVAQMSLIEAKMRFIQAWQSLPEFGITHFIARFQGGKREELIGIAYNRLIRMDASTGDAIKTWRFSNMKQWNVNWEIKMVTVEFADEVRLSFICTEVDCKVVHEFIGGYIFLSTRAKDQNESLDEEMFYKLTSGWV


Columns and labels:
[1] = molecular target: T1, EGFP-tagged wild-type KIND2 (EGFP–KIND2-WT) (mouse); assay: co-IP; GFP nanotrap beads (Chromotek), 3 h at 4 °C, lysates of STLC-arrested mitotic HeLa cells expressing EGFP–KIND2; 10 mM Tris-HCl, 150 mM NaCl, 0.5 mM EDTA, 0.5% NP-40; WB for CDK1, cyclin B1 and cyclin A2
[2] = molecular target: T1, EGFP-tagged wild-type KIND2 (EGFP–KIND2-WT) (mouse); assay: condition: only untreated (not STLC-arrested) HeLa cells; co-IP; GFP nanotrap beads (Chromotek), 3 h at 4 °C, lysates of untreated HeLa cells expressing EGFP–KIND2; 10 mM Tris-HCl, 150 mM NaCl, 0.5 mM EDTA, 0.5% NP-40; WB for CDK1, cyclin B1 and cyclin A2
[3] = molecular target: T1, EGFP-tagged wild-type KIND2 (EGFP–KIND2-WT) (mouse); assay: co-IP; GFP nanotrap beads (Chromotek), 3 h at 4 °C, lysates of untreated HeLa cells expressing EGFP–KIND2; 10 mM Tris-HCl, 150 mM NaCl, 0.5 mM EDTA, 0.5% NP-40; WB for CDK1, cyclin B1 and cyclin A2
[4] = molecular target: cullin 9 (CUL9) (human (endogenous in HeLa)) (UniProt Q8IWT3); assay: co-IP; anti-CUL9 antibody overnight at 4 °C, protein A/G agarose beads, lysates of untreated and STLC-arrested mitotic HeLa cells (also cells expressing EGFP-tagged KIND2 constructs); WB for CUL9, FBXL10, KIND2 or GFP

| binding [1] | binding [2] | binding [3] | binding [4] | Molecule |
| --- | --- | --- | --- | --- |
| binds | no binding | – | – | CDK1–cyclin B1 complex (from UniProt P06493 1-297; P14635 1-433) |
| no binding | – | no binding | – | cyclin A2 (from UniProt P20248 1-432) |
| – | – | – | binds | FBXL10 (protein, UniProt Q8NHM5 1-1336) MAGPQMGGSAEDHPPRKRHAAEKQKKKTVIYTKCFEFESATQRPIDRQRYDENEDLSDVEEIVSVRGFSLEEKLRSQLYQGDFVHAMEGKDFNYEYVQREALRVPLIFREKDGLGIKMPDPDFTVRDVKLLVGSRRLVDVMDVNTQKGTEMSMSQFVRYYETPEAQRDKLYNVISLEFSHTKLEHLVKRPTVVDLVDWVDNMWPQHLKEKQTEATNAIAEMKYPKVKKYCLMSVKGCFTDFHIDFGGTSVWYHVFRGGKIFWLIPPTLHNLALYEEWVLSGKQSDIFLGDRVERCQRIELKQGYTFFIPSGWIHAVYTPVDSLVFGGNILHSFNVPMQLRIYEIEDRTRVQPKFRYPFYYEMCWYVLERYVYCVTQRSHLTQEYQRESMLIDAPRKPSIDGFSSDSWLEMEEEACDQQPQEEEEKDEEGEGRDRAPKPPTDGSTSPTSTPSEDQEALGKKPKAPALRFLKRTLSNESEESVKSTTLAVDYPKTPTGSPATEVSAKWTHLTEFELKGLKALVEKLESLPENKKCVPEGIEDPQALLEGVKNVLKEHADDDPSLAITGVPVVTWPKKTPKNRAVGRPKGKLGPASAVKLAANRTTAGARRRRTRCRKCEACLRTECGECHFCKDMKKFGGPGRMKQSCIMRQCIAPVLPHTAVCLVCGEAGKEDTVEEEEGKFNLMLMECSICNEIIHPGCLKIKESEGVVNDELPNCWECPKCNHAGKTGKQKRGPGFKYASNLPGSLLKEQKMNRDNKEGQEPAKRRSECEEAPRRRSDEHSKKVPPDGLLRRKSDDVHLRKKRKYEKPQELSGRKRASSLQTSPGSSSHLSPRPPLGSSLSPWWRSSLTYFQQQLKPGKEDKLFRKKRRSWKNAEDRMALANKPLRRFKQEPEDELPEAPPKTRESDHSRSSSPTAGPSTEGAEGPEEKKKVKMRRKRRLPNKELSRELSKELNHEIQRTENSLANENQQPIKSEPESEGEEPKRPPGICERPHRFSKGLNGTPRELRHQLGPSLRSPPRVISRPPPSVSPPKCIQMERHVIRPPPISPPPDSLPLDDGAAHVMHREVWMAVFSYLSHQDLCVCMRVCRTWNRWCCDKRLWTRIDLNHCKSITPLMLSGIIRRQPVSLDLSWTNISKKQLSWLINRLPGLRDLVLSGCSWIAVSALCSSSCPLLRTLDVQWVEGLKDAQMRDLLSPPTDNRPGQMDNRSKLRNIVELRLAGLDITDASLRLIIRHMPLLSKLHLSYCNHVTDQSINLLTAVGTTTRDSLTEINLSDCNKVTDQCLSFFKRCGNICHIDLRYCKQVTKEGCEQFIAEMSVSVQFGQVEEKLLQKLS |
